The values that follow come from PubChem BioAssay (NCI).

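Dose response: 5 concentrations. Exposure: 48 h. Format: 96-well plates. Endpoint: linear interpolation; highest concentration if not reached. At the GI50, growth is halved. TGI: total growth inhibition.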

The test deals with NCI-H322M lung. In words: inhibition of tumour cell growth, NCI panel, 48 h.

As to `Cc1ccc(S(=O)(=O)NCCCNc2nc(Nc3ccc(N4CCN(C)CC4)cc3)nc3ccsc23)cc1`, the GI50 is 10.9 µM and the TGI came to 24.3 µM.
Consider `COC(=O)C[Se]C(=O)Cc1c(C)n(C(=O)c2ccc(Cl)cc2)c2ccc(OC)cc12`, for which the GI50 is 2.51 µM and the TGI amounted to 12.3 µM.
